According to PubChem BioAssay AID1347073 (National Center for Advancing Translational Sciences (NCATS), 2019):
Out of some 45,000 compounds screened, about 200 (0.44%) were called active. Not shown: some 7% with an inconclusive outcome. Calls follow the shape of the dose curve; as a rule, active = well fitted activation curve with a large enough effect; inconclusive = small, poorly fitted or top-dose-only effect; inactive = no such curve, though single readings can be large or run the other way. The list shows a part of the results.

Assay: qHTS of TDP-43 Inhibitors: NCGC Sytravon Library Screen; also: 0% is about no effect; nearly all actives have a fitted effect of over 55% in size
Conditions: yeast TDP-43 toxicity rescue, BacTiter-Glo growth, 24 h; at 46.1 µM (top of the series)
Text: The goal of this project is to identify new chemical probes capable of reversing the toxicity associated with TDP-43 which is associated with frontotemporal lobar degeneration and amyotrophic lateral sclerosis. These compounds will provide a complementary approach to deciphering the tangled mechanisms of toxicity and protection that we have uncovered through genome-wide genetic screens and are beginning to uncover in a large-scale proteomics analysis with mass spectroscopy. To this end, a miniaturized assay was developed to be screened against the Molecular Libraries Small Molecule Repository (MLSMR) to discover TDP-43 inhibitors. Please note that in the set-up this yeast-based assay compounds that inhibit as TDP-43, have a read-out as activators. NIH Chemical Genomics Center [NCGC] NIH Molecular Libraries Probe Centers Network [MLPCN] Assay Submitter (PI): Susan Lindquist, Whitehead Institute/MIT MLPCN Grant: R21 NS060957
Dispense 2.5 microL yeast galactose medium per 1536-well plate, pin compound, dispense 2.5 microL TDP-43 expressing yeast in galactose medium at OD600=0.02 (pregrown in raffinose medium to mid-log phase) per well, incubate for 24 hr at 30 deg C, and cell growth will be measured using 5 microL of Bactiter/Glo reagent to entire plate and read using Luminescence Protocol in ViewLux.

SMILES	growth rescue (activation)
O=c1[nH]c(=O)n(-c2cccc(F)c2)c(O)c1/C=C1\C=Nc2ccccc21	inactive: 3.9%
COc1cc2c(c(OC)c1OC)-c1ccc(O)c(=O)cc1C(NC(C)=O)CC2 (stereo unspecified)	inactive: 11.5%
Cc1cccc2c(CCN)c[nH]c12	inactive: 6.61%
COc1ccc(CNCCc2c(C)[nH]c3ccc(OC(F)(F)F)cc23)c(OC)c1	inactive: -13.7%
COc1cc(C)cc(CN2CC=C(c3ccccc3)CC2)c1O	inactive: 9.04%
O=[N+]([O-])c1ccc(NC2CCN(Cc3ccccc3)CC2)c2ccncc12	inactive: -2.96%
O=c1[nH]c(=O)n(Cc2ccco2)c(O)c1C=NC1CCN(Cc2ccccc2)CC1	inactive: -8.39%
Cc1ccccc1CN1CCNCC1	inactive: 2.71%
Nc1ccc(CC(N)c2csc(Nc3ncccn3)n2)cc1 (stereo unspecified)	inactive: 3.09%
N=C1c2ccccc2CN1c1ccc(F)c([N+](=O)[O-])c1	inactive: 22%
CCOP(=O)(OCC)c1cc(CC)ccc1O	inactive: 9.56%
Cc1cc(/C=C2\C(=O)NC(=O)N(Cc3ccco3)C2=O)c(C)n1-c1ccc(C(=O)O)cc1	inactive: 5.88%
C[C@]12CCC3C(CC[C@@H]4C[C@@H](O)CC[C@]34C)C1CC[C@@H]2O (stereo partly specified)	inactive: 22.8%
CCn1cc(C=C2C(=O)NC(=O)NC2=O)c2ccccc21	inactive: 9.89%
CN1CCN2c3ccc(N)cc3CC3(C(=O)NC(=O)NC3=O)C2C1 (stereo unspecified)	inactive: -4.72%
O=c1c2ccccc2nc(/C=C\c2cccc(Br)c2)n1-c1ccc(O)cc1	inactive: 9.18%
CCOC(=O)C1(CCc2ccccc2)CCN(C2CCSCC2)CC1	inactive: 7.77%
CCN1CCN(C(=O)COc2ccc(S(=O)(=O)N3CCOCC3)cc2C)CC1	inactive: 6.82%
Cc1ccccc1-n1c(O)c(C(c2ccncc2)c2c(O)n(-c3ccccc3C)c(=O)[nH]c2=O)c(=O)[nH]c1=O	inactive: -0.803%
CCN1C(=O)C(=C/C=C/c2ccco2)C(=O)N(CC)C1=S	inactive: 5.59%
COc1cc2nc(CN3CC=C(c4ccccc4)CC3)[nH]c(=O)c2cc1OC	inactive: 24.3%
CN1CCN(c2cn[nH]c(=O)c2Cl)CC1	inactive: 6.26%
CCC(=NCC1CCCO1)c1c(O)n(-c2ccc(OC)cc2)c(=O)[nH]c1=O (stereo unspecified)	inactive: -24.1%

SMILES	growth rescue (activation)
O=[N+]([O-])c1ccc(N2CCNCC2)cc1N1CCCCCC1	inactive: 4.35%
COc1ccc(CC2(CCc3ccncc3)C(=O)NC(=O)NC2=O)c(OC)c1	inactive: -14.6%
[N-]=[N+]=NCc1cn2cccnc2n1	inactive: -11.8%
CC12CC[C@H]3[C@@H](CCC4(O)C[C@H](O)CCC34/C=N/NC(=O)c3ccccc3O)C1(O)CCC2C1=CC(=O)OC1 (stereo partly specified)	inactive: -1.49%
COc1c(C)cc(C(=O)C2CCCN(Cc3ccccn3)C2)cc1C (stereo unspecified)	inactive: 3.38%
CN1c2ccc([N+](=O)[O-])cc2CC2(C(=O)NC(=O)NC2=O)C1c1ccccc1 (stereo unspecified)	inactive: -26.4%
COC(=O)CN1C(=O)CN=C(c2ccccc2Cl)c2cc(Br)ccc21	inactive: 26.8%
CCCc1nnc(NC(=O)CCC(=O)N2CCN(CCOC(c3ccccc3)c3ccccc3)CC2)s1	inactive: -3.38%
C[C@]12CCC3C(C[C@@H](O)[C@H]4C[C@@H](O)CC[C@]34C)C1CC[C@@H]2O (stereo partly specified)	inactive: 5.24%
O=C(c1cc(F)ccc1F)C1CCCN(Cc2cccc(Cl)c2)C1 (stereo unspecified)	inactive: 0.629%
CCOC(=O)c1c(/N=C/C2C(=O)NC(=O)NC2=O)sc2c1CCC2	inactive: 2.25%
COc1cc(C(=O)Nc2ccc(Br)cc2C(=O)c2ccccc2)cc(OC)c1OC	inactive: 5.61%
CCOc1ccccc1OCC(=O)Nc1ccc(Cl)cc1C(=O)c1ccccc1	inactive: -16.4%
O=C(O)CCC(=O)NCCC1=c2ccccc2=N/C1=C\c1c(O)n(Cc2ccc(F)cc2)c(=S)[nH]c1=O	inactive: -6.61%
COc1ccccc1N1C(=O)NC(=O)/C(=C/c2ccc3c(c2)Cc2ccccc2-3)C1=O	inactive: -22.1%
O=c1c2ccccc2nc(/C=C/c2ccc([N+](=O)[O-])o2)n1-c1ccc(O)cc1	inactive: -4.39%
Cc1ccc(S(=O)(=O)Nc2cc(C(=O)N3CCC4(CC3)OCCO4)ccc2N2CCCCC2)cc1	inactive: -13.6%
COc1ccc2c(c1OC)CN1CCc3cc4c(cc3C1C2)OCO4 (stereo unspecified)	inactive: -16.4%
Cc1ccc2c(c1)CNc1ccccc1O2	inactive: 17.6%
O=C(c1ccc2c(c1)OCO2)C1CCCN(Cc2ccccn2)C1 (stereo unspecified)	inactive: 1.25%
COc1ccc(-c2cc(-c3ccccc3)[n+](C)c(-c3ccccc3)c2)cc1	inactive: -17.4%
CCOC(=O)C1(Cc2ccc(Cl)cc2)CCN(C(C)CCn2cccn2)CC1 (stereo unspecified)	inactive: 6.39%
Cc1ccc(N2C(=O)NC(=O)/C(=C\c3cc(C)n(-c4sc5c(c4C#N)CCCC5)c3C)C2=O)cc1	inactive: 11.1%
